This note sets out measurements from the antibiotic and cytotoxicity screens of Wong et al. (2023).

One test relates to HSkMC. Nature of the test: cytotoxicity call (relative viability < 0.9). The following applies: 10 µM.
The test system of the next test is S. aureus RN4220. Nature of the test: growth inhibition call (relative growth <= 0.2). To be noted: 50 µM.

Structures are written as SMILES. The list shows a part of the results.

In the case of `COCC#Cc1cnc2c(c1)C(=O)N([C@@H](C)CO)C[C@@H](C)[C@H](CN(C)C(=O)CCN1CCCCC1)O2`, the cytotoxicity call with HSkMC was “inactive”. The growth inhibition call in the test with S. aureus RN4220 was “inactive”.
Take `Nc1nc2c(ncn2COC(CO)CO)c(=O)[nH]1.O`: the cytotoxicity call with HSkMC was “inactive”. Besides, the growth inhibition call in the test with S. aureus RN4220 was “inactive”.
With `C[C@@H]1CN([C@@H](C)CO)C(=O)c2cc(NC(=O)CCN3CCOCC3)ccc2O[C@H]1CN(C)C(=O)Nc1ccc(F)cc1`, the cytotoxicity call in the test with HSkMC is “inactive”. Further, the growth inhibition call in the test on S. aureus RN4220 was “inactive”.
As for `CC(=O)OCC1=C(C(=O)O)N2C(=O)[C@@H](NC(=O)CSc3ccncc3)[C@H]2SC1`, in the test on HSkMC, the cytotoxicity call is “inactive”. Moreover, the growth inhibition call in the test on S. aureus RN4220 is “active”.
The matching figures for `COC(=O)CCC(C)C1CCC2C3C(O)CC4CC(O)CCC4(C)C3CC(O)C12C` (configuration not stated): “inactive” and “inactive”.
On to `COC(=O)[C@@H]1[C@@H](CO)[C@@H]2Cn3c(cccc3=O)[C@@H]2N1C(=O)C1CC1`, for which the cytotoxicity call with HSkMC is “inactive”. For the same molecule, the growth inhibition call in the test with S. aureus RN4220 is “inactive”.
Consider `Cc1ccc(S(=O)(=O)N(C)C[C@H]2Oc3c(NC(=O)c4ccncc4)cccc3C(=O)N([C@H](C)CO)C[C@@H]2C)cc1`, for which the cytotoxicity call in the test with HSkMC was “inactive”. In the test with S. aureus RN4220, the growth inhibition call is “inactive”.
As to `COc1cccc(C(=O)Nc2ccc3c(c2)C(=O)N(C)[C@@H]2CC[C@@H](CC(=O)NCC(F)(F)F)O[C@H]2CO3)c1`, the cytotoxicity call in the test with HSkMC was “inactive”. Moreover, the growth inhibition call in the test with S. aureus RN4220 was “inactive”.
For `C[C@@H]1CCCCO[C@@H](CN(C)Cc2ccc(C(F)(F)F)cc2)[C@H](C)CN([C@H](C)CO)C(=O)c2cc(NC(=O)Cc3ccccc3)ccc2O1`, the cytotoxicity call in the test with HSkMC is “active”. Besides, in the test with S. aureus RN4220, the growth inhibition call was “inactive”.
The corresponding values for `O=C(C[C@H]1C=C[C@H](NC(=O)C2CC2)[C@@H](CO)O1)NCCCN1CCOCC1` are “inactive” and “inactive”.
The corresponding values for `C[C@@H]1CCCCO[C@@H](CN(C)Cc2ccc3c(c2)OCO3)[C@@H](C)CN([C@H](C)CO)C(=O)c2cc(NC(=O)c3ccccc3)ccc2O1` are “inactive” and “inactive”.
In the case of `C[C@@H]1CN([C@H](C)CO)C(=O)c2cc(NC(=O)Nc3cccc4ccccc34)ccc2O[C@@H](C)CCCCO[C@@H]1CN(C)C(=O)NC1CCCCC1`, in the test on HSkMC, the cytotoxicity call is “inactive”. Moreover, in the test with S. aureus RN4220, the growth inhibition call was “inactive”.
As to `C=CCC[C@H](Cc1ccc(F)cc1)C(=O)OC[C@H](Cc1c[nH]c2ccccc12)NC(=O)[C@H](CC=C)CC(=O)N(CCO)Cc1ccccc1`, the cytotoxicity call in the test on HSkMC is “inactive”. In addition, the growth inhibition call in the test with S. aureus RN4220 was “inactive”.
Consider `CCc1cc(C(N)=O)c(N)s1`, for which the cytotoxicity call with HSkMC is “inactive”. In addition, the growth inhibition call in the test with S. aureus RN4220 is “inactive”.
For the molecule `COC(=O)CCCCCCC(=O)Nc1ccc([C@H]2O[C@H](CSc3nc(-c4ccccc4)c(-c4ccccc4)o3)C[C@H](c3ccc(NC(=O)CCCCCCC(=O)OC)cc3)O2)cc1`, the cytotoxicity call in the test on HSkMC was “inactive”. Besides, in the test with S. aureus RN4220, the growth inhibition call is “inactive”.
As for `COC(=O)[C@H]1C[C@@]2(C(=O)O)C[C@](C(=O)O)(C[C@@H](C(=O)OC)C2=O)C1=O`, in the test on HSkMC, the cytotoxicity call was “inactive”. The growth inhibition call with S. aureus RN4220 is “inactive”.
For the molecule `C[C@@H]1O[C@@H](O[C@@H]2C=C(CO)[C@H]3[C@H](O[C@@H]4O[C@H](CO)[C@@H](O)[C@H](O)[C@H]4O)OC=C[C@H]32)[C@H](O)[C@H](O)[C@H]1OC(=O)/C=C/c1ccccc1`, the cytotoxicity call in the test on HSkMC was “inactive”. Also, in the test with S. aureus RN4220, the growth inhibition call is “inactive”.
On to `CC(C)NCC(O)c1ccc(NS(C)(=O)=O)cc1.Cl` (configuration not stated), for which, in the test with HSkMC, the cytotoxicity call is “inactive”. Moreover, the growth inhibition call in the test on S. aureus RN4220 is “inactive”.
Take `COC(=O)[C@@H]1N2C(=O)[C@@H](N3C[C@](C)(OC)O[C@@H](Cc4ccccc4)[C@H]3/C=C/C3CC3)[C@H]2SC1(C)C`: the cytotoxicity call in the test with HSkMC was “inactive”. Also, in the test with S. aureus RN4220, the growth inhibition call was “inactive”.
`O=C(C[C@H]1CC[C@@H]2[C@H](COC[C@H](O)CN2S(=O)(=O)c2cccc(F)c2)O1)NCc1ccncn1`: the cytotoxicity call in the test on HSkMC is “inactive”. Moreover, in the test with S. aureus RN4220, the growth inhibition call was “inactive”.
In the case of `C[C@H]1CNC(=CC(=O)c2ccccc2)C(=O)N1`, the cytotoxicity call with HSkMC was “inactive”. Besides, in the test on S. aureus RN4220, the growth inhibition call is “inactive”.
On to `CC(=O)N[C@H]1[C@@H](OCc2ccccc2)O[C@H](C(=O)O)[C@@H](OC(C)=O)[C@@H]1OC(C)=O`, for which the cytotoxicity call in the test with HSkMC was “inactive”. Also, in the test with S. aureus RN4220, the growth inhibition call is “inactive”.
Consider `O=C1O[C@@H](c2ccccc2)[C@@H](c2ccccc2)N2[C@@H](c3ccc(OCCO)cc3)[C@]3(C(=O)Nc4ccc(C#CC5(O)CCCCCC5)cc43)[C@@H](C(=O)NC[C@H](O)c3ccccc3)[C@H]12`, for which the cytotoxicity call in the test on HSkMC is “inactive”. Besides, in the test on S. aureus RN4220, the growth inhibition call was “inactive”.
With `O=C(CC(=O)N1CCOCC1)N1CCOCC1`, the cytotoxicity call in the test with HSkMC was “inactive”. In the test with S. aureus RN4220, the growth inhibition call was “inactive”.
Turning to `CC(=O)O.N=C(N)NN=Cc1c(Cl)cccc1Cl`, the cytotoxicity call with HSkMC is “inactive”. In addition, the growth inhibition call in the test with S. aureus RN4220 is “inactive”.
For the molecule `C[C@@H]1CCCCO[C@@H](CN(C)C)[C@H](C)CN([C@H](C)CO)C(=O)c2cc(NC(=O)Nc3ccc(C(F)(F)F)cc3)ccc2O1`, the cytotoxicity call with HSkMC is “inactive”. For the same molecule, the growth inhibition call in the test with S. aureus RN4220 was “inactive”.
Consider `NNC(=O)c1ccccc1O`, for which the cytotoxicity call in the test with HSkMC was “inactive”. In the test with S. aureus RN4220, the growth inhibition call is “inactive”.
For the molecule `Cc1cc(C(=O)Nc2cccc3c2O[C@H](CN(C)Cc2ccccc2)[C@@H](C)CN([C@@H](C)CO)C3=O)n(C)n1`, the cytotoxicity call with HSkMC was “inactive”. Also, the growth inhibition call in the test with S. aureus RN4220 was “inactive”.
Take `CS(=O)(=O)OCCCCOS(C)(=O)=O`: in the test on HSkMC, the cytotoxicity call is “inactive”. Further, the growth inhibition call with S. aureus RN4220 was “inactive”.
Turning to `C[C@H](CO)N1C[C@H](C)[C@@H](CN(C)Cc2ccc(C(=O)O)cc2)Oc2c(NC(=O)C3CCOCC3)cccc2C1=O`, the cytotoxicity call in the test on HSkMC is “inactive”. Also, the growth inhibition call in the test on S. aureus RN4220 was “inactive”.
Regarding `CC(C)NC(=O)N(C)C[C@H]1Oc2ccc(NS(=O)(=O)c3ccc(F)cc3)cc2C(=O)N([C@@H](C)CO)C[C@H]1C`, in the test on HSkMC (human skeletal muscle cells), the cytotoxicity call is “inactive”. Besides, the growth inhibition call in the test with S. aureus RN4220 was “inactive”.
